{"source": "the supplement of paper PMC8728848", "assay_in_all_cases": "glycan array binding signal (z-score within array); higher = stronger binding", "details_in_all_cases": "glycan notation: IUPAC condensed, linker removed", "key": {"[1]": {"target": "Neu5Ac(a2-3)Gal(b1-4)GlcNAc(b1-3)Gal(b1-4)GlcNAc(b1-2)Man(a1-3)[Neu5Ac(a2-3)Gal(b1-4)GlcNAc(b1-3)Gal(b1-4)GlcNAc(b1-2)Man(a1-6)]Man(b1-4)GlcNAc(b1-4)GlcNAc", "method_in_brief": "(§1)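 From the Consortium for Functional Glycomics database, 3228 arrays were curated, keeping only those whose protein sequence was available. Binding is given as a within-array Z-score averaged across arrays sharing a protein sequence and across linkers. Negative Z-scores can be read as non-binding.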"}, "[2]": {"target": "Neu5Ac(a2-3)Gal(b1-4)GlcNAc(b1-3)Gal(b1-4)GlcNAc(b1-3)Gal(b1-4)GlcNAc", "method_in_brief": "as §1"}, "[3]": {"target": "Neu5Ac(a2-3)Gal(b1-4)GlcNAc(b1-3)Gal(b1-4)GlcNAc(b1-3)Gal(b1-4)GlcNAc(b1-2)Man(a1-3)[Neu5Ac(a2-3)Gal(b1-4)GlcNAc(b1-3)Gal(b1-4)GlcNAc(b1-3)Gal(b1-4)GlcNAc(b1-2)Man(a1-6)]GalNAc", "method_in_brief": "as §1"}, "[4]": {"target": "Neu5Ac(a2-3)Gal(b1-4)GlcNAc(b1-3)Gal(b1-4)GlcNAc(b1-3)GalNAc", "method_in_brief": "as §1"}, "[5]": {"target": "Neu5Ac(a2-3)Gal(b1-4)GlcNAc(b1-3)Gal(b1-4)GlcNAc(b1-3)[Neu5Ac(a2-3)Gal(b1-4)GlcNAc(b1-3)Gal(b1-4)GlcNAc(b1-6)]GalNAc", "method_in_brief": "as §1"}, "[6]": {"target": "Neu5Ac(a2-3)Gal(b1-4)GlcNAc(b1-3)Gal(b1-4)GlcNAc(b1-6)[Gal(b1-3)]GalNAc", "method_in_brief": "as §1"}, "[7]": {"target": "Neu5Ac(a2-3)Gal(b1-4)GlcNAc(b1-3)Gal(b1-4)[Fuc(a1-3)]GlcNAc", "method_in_brief": "as §1"}, "[8]": {"target": "Neu5Ac(a2-3)Gal(b1-4)GlcNAc(b1-3)GalNAc", "method_in_brief": "as §1"}, "[9]": {"target": "Neu5Ac(a2-3)Gal(b1-4)GlcNAc(b1-3)[Neu5Ac(a2-3)Gal(b1-4)GlcNAc(b1-6)]GalNAc", "method_in_brief": "as §1"}, "[10]": {"target": "Neu5Ac(a2-3)Gal(b1-4)GlcNAc(b1-6)GalNAc", "method_in_brief": "as §1"}, "[11]": {"target": "Neu5Ac(a2-3)Gal(b1-4)GlcNAc(b1-6)[Gal(b1-3)]GalNAc", "method_in_brief": "as §1"}, "[12]": {"target": "Neu5Ac(a2-3)Gal(b1-4)GlcNAc(b1-6)[Neu5Ac(a2-3)Gal(b1-3)]GalNAc", "method_in_brief": "as §1"}, "[13]": {"target": "Neu5Ac(a2-3)Gal(b1-4)GlcNAc6S", "method_in_brief": "as §1"}, "[14]": {"target": "Neu5Ac(a2-3)Gal(b1-4)[Fuc(a1-3)]GlcNAc", "method_in_brief": "as §1"}, "[15]": {"target": "Neu5Ac(a2-3)Gal(b1-4)[Fuc(a1-3)]GlcNAc(b1-2)Man", "method_in_brief": "as §1"}, "[16]": {"target": "Neu5Ac(a2-3)Gal(b1-4)[Fuc(a1-3)]GlcNAc(b1-3)Gal", "method_in_brief": "as §1"}, "[17]": {"target": "Neu5Ac(a2-3)Gal(b1-4)[Fuc(a1-3)]GlcNAc(b1-3)Gal(b1-4)GlcNAc", "method_in_brief": "as §1"}, "[18]": {"target": "Neu5Ac(a2-3)Gal(b1-4)[Fuc(a1-3)]GlcNAc(b1-3)Gal(b1-4)[Fuc(a1-3)]GlcNAc(b1-3)Gal(b1-4)[Fuc(a1-3)]GlcNAc", "method_in_brief": "as §1"}, "[19]": {"target": "Neu5Ac(a2-3)Gal(b1-4)[Fuc(a1-3)]GlcNAc(b1-3)GalNAc", "method_in_brief": "as §1"}, "[20]": {"target": "Neu5Ac(a2-3)Gal(b1-4)[Fuc(a1-3)]GlcNAc(b1-6)[Gal(b1-3)]GalNAc", "method_in_brief": "as §1"}, "[21]": {"target": "Neu5Ac(a2-3)Gal(b1-4)[Fuc(a1-3)]GlcNAc(b1-6)[Neu5Ac(a2-3)Gal(b1-3)]GalNAc", "method_in_brief": "as §1"}, "[22]": {"target": "Neu5Ac(a2-3)Gal(b1-4)[Fuc(a1-3)]GlcNAc6S", "method_in_brief": "as §1"}, "[23]": {"target": "Neu5Ac(a2-3)Gal6S(b1-4)GlcNAc", "method_in_brief": "as §1"}}, "note": "The other results are listed elsewhere or left out."}
{"binder": "InvD YPIII (Yersinia pseudotuberculosis), B1JSC0 (protein) MIKYFSFFKKPEPIVGILPNRQSHHILPTHIRRVAWGTLLLQLFIPLSVSFSPAIAAMKASKADTMVSYSSTEPYVLGSGETVAMVAKKYGITVDELKKINIYRTFSRPFTALTTGDEIDIPRKASPFSVDNNKDNRLSVENTLAGHAVAGATALSNGDVAKSGERMVRSAASNEFNNSAQQWLSQFGTARVQLNINDDFHLDGSAADVLIPLYDNEKSILFTQLGARNKDSRNTVNMGAGVRTFQGNWMYGANTFFDNDLTGKNRRIGVGAEAWTDYLKLSANNYFGITDWHQSRDFIDYNERPANGYDLRAEAYLPSYPQLGGKAMYEKYRGDDVALFGKDNRQKNPHAITAGVNYTPIPLVTIGAEHRAGKGGQNDSNINFQLNYRLGETWQSHIDPSAVAASRTLAGSRYDLVERNNHIVLDYQKQNLVRLSLPDSLAGDPFSQLSVTAQVTATHGLERIDWQSAELMAAGGVLKQTSKNGLEITLPEYQMNRTGGNSYILNAIAYDTQGNASSQASMLITVNAQKINIANSTLVAVPINIEANNSDTSVVTLTLKDDNNIPVTGQDVTFLSPLGTLSAMTDSGNGVYTATLTAGTVSGTTAVSSNINGSALDMTPATVTLNGNSGELSITHSMLVAAPVNIEANGSDTSVVTLTLRDSNNNPVTGQTVTFAGTLGTLGAVTEGSSGVYTATLTAGIMVGTSSITASVNSTALGVTPATVTLNGDSGNLSTTNSTLVAAPVNIEANSSDTSVVTLTLRDNNNNPVTGQTVVFTSTLGTLGNVTEQASGVYTATLTAGTVSGVASLSVSVGGNALGVTPATVTLNGDSGNLSTTNSTLVAAPVNIEANSSDTSVVTLTLRDNNNNPVTGQTVNFAGTLGTLGTVSEGSSGVYTTTLTAGTVAGVASLSVNVGGNALGVTPATVTLNGNSGNLSATNSTLVAAPVNIEANSSDTSVVTLTLRDNNNNPVTGQTVAFTSTLGTLGNVTEQASGVYTATLTAGTVSGVASLSVSVNSNALGVTPATVTLNGDSGNLSTTNSTLVAAPVNIEANSSDTSVVTLTLRDNNNNPVTGQTVAFTSTLGTLGNVTEQASGLYTATLTAGTVSGVASLSVNVGGNALGVTPATVTLNGDSGNLSATNSTLVAAPVNIEANSSDTSVVTLTLRDNNNNPVTGQTVAFTSTLGTLGNVTEQASGLYTATLTAGTVSGVASLSVNVGGTALGVTPATVTLNGDSGNLSTTNSTLVAAPVNIEANSSDTSVVTLTLRDNNNNPVTGQTVAFTSTLGTLGNVTEQASGLYTATLTAGTVSGVASLSVSVNSTALGVTPATVTLNGDSGNLSTTNSTLVAAPVNIEANSSDTSVVTLTLRDNNNNPVTGQTVAFTSTLGTLGNVTEQASGVYTATLTAGTVAGVASLSVNVGGNALGVTPATVTLNGDSGNLSTTNSTLVAAPVNIEANSSDTSVVTLTLRDNNNNPVTGQTVAFTSTLGTLGNVTEQASGVYTATLTAGTVSGVASLSVSVGSSALGVTPATVTLNGDSGNLSTTNSTLVAAPVNIEANNSDTSVVTLTLRDNNNNPVTGQTVAFTSTLGTLGNVTEQASGVYTATLTAGTVSGVASLSVSVNSNALGVTPATVTLNGDSGNLSTTNSTLVAAPVNIEANSSDTSVVTLTLRDNNNNPVTGQTVVFTSTLGTLGNVTEQASGLYTATLTAGTVSGVASLSVSVGGNALGVTGNITLAPGALDAARSILAVNKPSINADDRIGSTITFTAQDAQGNAITGLDIAFMTDLENSQIMTLVDHNDGTYTANINGTQTGIANIAVQSSGATIAGLAATMVTITPGAWNTTQATPVMTVALPITTCQSSSGVYKRYYIGIVTHELYDNYGNEISGILTYNLGAGRYTTVTSQNSSVSGSNGLTRRSNSPVSHFILTSDAYTSQAACYAERIANVNVTITVTAITDDFKTSAVNKVFILGTGSN", "values": [{"measurement": "glycan array binding signal (z-score)", "setting": "[1]", "value": -0.107}, {"measurement": "glycan array binding signal (z-score)", "setting": "[2]", "value": 0.261}, {"measurement": "glycan array binding signal (z-score)", "setting": "[3]", "value": 0.604}, {"measurement": "glycan array binding signal (z-score)", "setting": "[4]", "value": 0.393}, {"measurement": "glycan array binding signal (z-score)", "setting": "[5]", "value": 0.009}, {"measurement": "glycan array binding signal (z-score)", "setting": "[6]", "value": -0.126}, {"measurement": "glycan array binding signal (z-score)", "setting": "[7]", "value": -0.019}, {"measurement": "glycan array binding signal (z-score)", "setting": "[8]", "value": -0.259}, {"measurement": "glycan array binding signal (z-score)", "setting": "[9]", "value": 0.009}, {"measurement": "glycan array binding signal (z-score)", "setting": "[10]", "value": 0.218}, {"measurement": "glycan array binding signal (z-score)", "setting": "[11]", "value": 0.162}, {"measurement": "glycan array binding signal (z-score)", "setting": "[12]", "value": -0.125}, {"measurement": "glycan array binding signal (z-score)", "setting": "[13]", "value": -0.166}, {"measurement": "glycan array binding signal (z-score)", "setting": "[14]", "value": -0.267}, {"measurement": "glycan array binding signal (z-score)", "setting": "[15]", "value": -0.036}, {"measurement": "glycan array binding signal (z-score)", "setting": "[16]", "value": -0.145}, {"measurement": "glycan array binding signal (z-score)", "setting": "[17]", "value": -0.037}, {"measurement": "glycan array binding signal (z-score)", "setting": "[18]", "value": -0.211}, {"measurement": "glycan array binding signal (z-score)", "setting": "[19]", "value": -0.131}, {"measurement": "glycan array binding signal (z-score)", "setting": "[20]", "value": 0.032}, {"measurement": "glycan array binding signal (z-score)", "setting": "[21]", "value": -0.245}, {"measurement": "glycan array binding signal (z-score)", "setting": "[22]", "value": -0.17}, {"measurement": "glycan array binding signal (z-score)", "setting": "[23]", "value": -0.256}]}
